The record followed here is PubChem BioAssay (NCI).

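Cultured in 96-well plates, cells were exposed to test compound for 48 hours across five concentrations. At the GI50, growth is halved. Definition used: TGI = concentration required for complete inhibition of growth.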

This assay relates to NCI-H322M lung. The assay can be described thus: NCI tumour cell line growth inhibition, 48 h.
As for `CCC(C)C(=O)c1c(O)c(C/C=C(\C)CCC=C(C)C)c(O)c2c(C(O)CC)cc(=O)oc12` (centres undefined), the TGI turned out to be 11.6 µM.
Still for that read-out and setting: in the case of `CC1(C)CC(=O)c2c(nc3ccc4ccccc4c3c2-c2ccc(NC(=O)CCC(=O)Nc3ccc(-c4c5c(nc6ccc7ccccc7c46)CC(C)(C)CC5=O)cc3)cc2)C1` it was over 100 µM.
Still for that read-out and setting: with `NC(=O)N1N=C2c3ccccc3SC[C@H]2[C@@H]1c1ccccc1` the figure was over 100 µM.
On the same count and under the same terms, with `CCOc1ccc(NCc2cc(OC)c(OC)c(OC)c2)cc1` the figure was over 100 µM; with `COc1ccc(-c2cc(N3CCN(c4ccccc4)CC3)c(C#N)c(=O)o2)cc1`, over 100 µM.
`COc1ccc2oc3cccc(NCCN(C)C)c3c(=O)c2c1`: the TGI worked out at 23.6 µM.
In the case of `COc1nc2nccc-2c2occn12`, the TGI is over 100 µM.
On the same count and under the same terms, in the case of `COC(=O)c1csc(-c2nc(CCNC(=O)OC(C)(C)C)sc2Br)n1` it was over 100 µM; in that of `CC(C)C[P+](c1ccccc1)(c1ccccc1)c1ccccc1`, 89.9 µM.
Same read-out and setting: with `CCCCCCCCCCCCCCCCCCCCCC(=O)Nc1ccn(C2OC(CO)C(O)C2O)c(=O)n1` (centres undefined) the figure was over 100 µM.
Take `Cc1nc2sc(C(=O)Nc3ccccc3)c(N)c2cc1C(=O)/C=C/c1ccccc1`: the GI50 was 2.32 µM and the TGI turned out to be 5.99 µM.
Compound `CNC(=O)c1[nH]cnc1/N=N/N(C)N` came in with a TGI of over 100 µM.
Still for that read-out and setting: in the case of `Cc1ccc(N=C2C(=O)C3=C(OC(C)(C)CC3)c3ccccc32)cc1` it was 2.96 µM.
On to `C#CC[C@@H]1C[C@]2(C)[C@H]3CC=C4[C@H]5CC(C)(C)CC[C@]5(C(=O)NCCCCN)CC[C@@]4(C)[C@]3(C)CC[C@H]2C(C)(C)[C@H]1OC(C)=O`, for which the GI50 is 1.63 µM and the TGI came out at 2.99 µM.
`N[C@H](C(=O)O)[C@H](Cl)CC(=O)O`: the TGI was over 100 µM.
Same read-out and setting: with `NNC(=O)CCC(=O)NC1C2CC3CC(C2)CC1C3` (centres undefined) the figure was over 100 µM; with `O=NNc1nc(-c2cccnc2)nc2ccccc12`, over 100 µM.
In the case of `c1cnc2[nH]cc(-c3csc(-c4cn(CCCCN5CCOCC5)c5ccccc45)n3)c2c1`, the GI50 was 1.79 µM and the TGI turned out to be 3.83 µM.
The compound `OCCCCCCOc1ccc(-c2cc(-c3ccccn3)nc(-c3ccccn3)c2)cc1` registered a TGI of 1.24 µM.
Still for that read-out and setting: in the case of `CC/C=C\C/C=C\C/C=C\CCCCCCCC(=O)OCC` it was over 100 µM.
In the case of `NC(C(=O)[O-])C(=O)[O-].NC1CCCCC1N.[Pt+4]`, the GI50 is 5.57 µM and the TGI was over 100 µM.
Take `CCOC(=O)CCC(NC(=O)c1ccc(N2CCN(c3c(C)nc(N)nc3N)CC2)cc1)C(=O)OCC` (centres undefined): the TGI was over 100 µM.
The same measure, in the same setting: with `COc1ccc(C(C#N)NNc2nc(C)cc(=O)[nH]2)cc1OC` (centres undefined) the figure was over 100 µM; with `COC(=O)/N=[N+](\[O-])C(c1ccc(OC)cc1)C1CCCCC1` (centres undefined), 11.2 µM.
Same read-out and setting: with `O=c1oc2ccccc2n1CCN1CCCCC1` the figure was over 100 µM; with `Cc1ccc(NC(=O)/C(=N\Nc2ccc([N+](=O)[O-])cc2[N+](=O)[O-])C2C(=O)NC(=O)NC2=O)cc1`, over 100 µM.
Turning to `CC(=O)Nc1ccc2c(c1)oc(=O)c1cc(NC(C)=O)ccc12`, the GI50 was 57.8 µM and the TGI was over 100 µM.
The compound `N#CC1(C#N)NC(c2ccsc2)C(C#N)(C#N)NC1c1ccsc1` (centres undefined) registered a TGI of over 100 µM.
Same read-out and setting: with `CCOC(=O)C(=O)Nc1c(C)cccc1C` the figure was over 100 µM; with `CCC(=O)O[C@H]1CC[C@H]2[C@@H]3CCC4=C/C(=N/NC(=O)c5cccc6c(=O)c7ccccc7[nH]c56)CC[C@]4(C)[C@H]3CC[C@]12C`, over 25 µM.
On the same count and under the same terms, with `COc1ccc(CC(C)N)cc1` (centres undefined) the figure was over 100 µM; with `CCC(CCCC[C@@H]1CC[C@H]2CC(=O)C[C@@H]12)OC` (some centres undefined), over 100 µM; with `CC(C)(Br)C1(O)CCCN1C(=O)c1ccccc1` (centres undefined), over 100 µM.
The same measure, in the same setting: in the case of `CC(C)C1OC(=O)/C=C/C=C/C=C/C=C/C=C/CC(O)CC(O)CC(O)CC(O)CC(O)CC(O)CC(O)CC(O)/C=C/C1C` (centres undefined) it was over 100 µM; in that of `Cc1nc2c(sc3nc4ccccc4n32)c(=O)[nH]1`, over 100 µM.
Turning to `CC(=O)[O-].CC(=O)[O-].[NH2-].[Pt+2].c1ccc2cnccc2c1`, the GI50 was over 100 µM and the TGI is over 100 µM.
With `COC(=O)c1c(C)cccc1/C=C1\Cc2cc(C)cc(C)c2C1=O`, the TGI was over 100 µM.
On to `CCOP(=O)(OCC)C(NC(c1ccccc1)c1ccccc1)c1cccc2ccccc12` (centres undefined), for which the GI50 is 11.5 µM and the TGI was 26.2 µM.
The compound `O=[N+]([O-])c1cccnc1NCC1(CO)CC(Cc2ccccc2)C1` (centres undefined) yielded a TGI of over 100 µM.
Same read-out and setting: in the case of `CC1=C(O)C(=O)C2C(=O)C1C(C)C2c1ccc(Cl)cc1` (centres undefined) it was over 100 µM.
For the compound `N#C/C(=C\c1cccc(O)c1)C(N)=O`, the TGI is over 100 µM.
On the same count and under the same terms, with `S=c1[nH]c2ccc(Br)cc2c(=S)n1-c1ccccc1` the figure was 53 µM; with `N#Cc1c(NC(=S)NC(=O)c2ccccc2)nc2c(c1-c1ccccc1)CCCC2`, over 100 µM; with `NCc1ccc(C(=O)O)cc1`, over 100 µM.
Take `CC(C)CCn1c(=O)c2c(=O)[nH][nH]c2c2ccccc21`: the TGI was over 100 µM.
For the compound `COc1ccc2c(c1)OC(N(C(C)=O)C(C)=O)=C(C#N)C2c1ccc(F)cc1` (centres undefined), the GI50 was 6.26 µM and the TGI was over 100 µM.
As to `Clc1ccc(C2NN=C3c4ccccc4OCC32)cc1` (centres undefined), the TGI is over 100 µM.
Same read-out and setting: in the case of `O=[N+]([O-])c1cn[n+]([O-])c2ccccc12` it was 27.8 µM; in that of `CSC1=C(c2ccc(Cl)cc2)SC(N2CCCCC2)N1c1ccc([N+](=O)[O-])cc1` (centres undefined), over 100 µM; in that of `Cc1ccc(Nc2cc(=O)[nH]c(=S)[nH]2)cc1`, over 100 µM.
`ClCc1c(Cl)c(Cl)c(Cl)c(CCl)c1Cl`: the GI50 is 1.74 µM and the TGI came to 3.66 µM.
The compound `S=c1[nH]c(=S)c2cc(Sc3ccc4[nH]c(=S)[nH]c(=S)c4c3)ccc2[nH]1` yielded a TGI of over 100 µM.
The same measure, in the same setting: in the case of `CC1C[C@]2(C)C(=O)N(c3ccccc3)C(=N)[C@@H]2N(C)c2ccccc21` (some centres undefined) it was over 100 µM.
Turning to `O=C(O)c1cc(=O)c2[nH]c3ccccc3c2s1`, the TGI was over 100 µM.
For `CC(=O)Nc1ccc2c3c(cc(O)c2c1)N(C(=O)CCCCC(=O)Nc1ccc2c4c(cc(O)c2c1)N(C(=O)OC(C)(C)C)CC4CCl)CC3CCl` (centres undefined), the TGI was 37.2 µM.
Still for that read-out and setting: in the case of `CCCCOC(=O)C(O)Cc1ccoc1` (centres undefined) it was over 100 µM.
Consider `CN(C)C(=S)N=Nc1c(O)[nH]c2ccccc12`, for which the GI50 was 0.726 µM and the TGI worked out at 23.5 µM.
`CN(C)CCCN1CCc2c([nH]c3ccccc23)C1c1cccnc1` (centres undefined) displayed a TGI of over 100 µM.
The same measure, in the same setting: with `CC(=O)Nc1ccc2[nH]c(-c3cccc(F)c3)cc(=O)c2c1` the figure was over 100 µM; with `CN(C)c1ccc(N=Nc2ccccn2)cc1`, over 100 µM; with `Cc1cccc(C(C)C)c1NC(=O)C(=O)CC(=O)c1c(C)n([O-])c2ccccc2[n+]1=O`, 95.7 µM.
Same read-out and setting: in the case of `COc1ccc(NC(=O)c2cc(OC)c(OC)c(OC)c2)cc1` it was 89.3 µM.
The same measure, in the same setting: with `Cc1cccc(C(O)c2ccncc2)c1O` (centres undefined) the figure was over 100 µM.
Take `COc1cccc(C(=O)C2C(=O)N(C)CCc3ccccc32)c1OC` (centres undefined): the TGI is over 100 µM.
Regarding `Nc1cc(N)c(N)cc1N`, the GI50 was 9.39 µM and the TGI is 22.1 µM.
In turn, `Nc1nc2c(c(=O)[nH]1)CN(c1ccc(S(N)(=O)=O)cc1)CN2` displayed a TGI of over 100 µM.
The same measure, in the same setting: with `C[C@H](O)C1CC(Cn2nnc3c(N)ncnc32)C1(C)C` (some centres undefined) the figure was over 100 µM.
For the compound `CN(CCOc1ccc(C#N)cc1)CCOc1ccc(C#N)cc1`, the GI50 was over 100 µM and the TGI is over 100 µM.
In the case of `CN(CCc1ccc(N)cc1)[C@H]1CCCC[C@H]1N1CCCC1`, the TGI was over 100 µM.
On the same count and under the same terms, in the case of `CC1S(=O)(=O)OCCOS1(=O)=O` it was over 100 µM; in that of `CNC(=S)N/N=C/c1cccc(C)n1`, over 100 µM.
With `COc1ccc(-c2cn(-c3ccccc3)c(-c3ccccc3)n2)cc1OC`, the GI50 was 10.6 µM and the TGI amounted to 26.7 µM.
For `COc1cc(Cn2c3c(c4c(C(=O)NCCN(C)C)c(O)ccc42)C(=O)c2ccccc2C3=O)cc(OC)c1`, the TGI is 3.18 µM.
Still for that read-out and setting: with `CC(=O)n1c2ccccc2c2nc3nc(Oc4ccc(C)cc4)c4ccccc4c3cc21` the figure was over 100 µM; with `Cc1cccc2c1NC(=S)[C@@H]1CCCN1C2=O`, over 100 µM.
On the same count and under the same terms, with `COC(=O)c1cc(C#Cc2cc(OC)ccc2OC)ccc1OC` the figure was over 100 µM.
Still for that read-out and setting: with `CSc1nc2c(nc(N)n2C2OCC(O)C(O)C2O)c(=O)n1C` (centres undefined) the figure was over 100 µM; with `N#CC(C(=O)C(=O)NCCCNC(=O)C(=O)C(C#N)c1ccccc1)c1ccccc1` (centres undefined), over 100 µM; with `Cc1cc2c(c(C=NCc3ccccc3)c1)OC1(C=C2)Oc2ccccc2C(=O)N1C` (centres undefined), 44.4 µM.
Turning to `C[C@H]1[C@H](C)CC[C@]2(C(=O)O)CC[C@]3(C)C(=CC[C@@H]4[C@@]5(C)C/C(=C/c6cccnc6)[C@H](O)C(C)(C)[C@@H]5CC[C@]43C)[C@H]12`, the GI50 is 16.2 µM and the TGI was 69.3 µM.
Turning to `CC(C)NC(=O)OCCS(=O)c1c(Cl)c(Cl)nn1C` (centres undefined), the TGI was over 100 µM.
Turning to `O=C(CCl)N1c2ccccc2Sc2c1ccc1ccccc21`, the GI50 is 18.3 µM and the TGI was found to be 34.7 µM.
As to `Brc1ccc2[nH]cc(-c3nc(-c4c[nH]c5ccccc45)cs3)c2c1`, the TGI is 9.67 µM.
As to `Clc1nc(Cl)c2c(ncn2C/C=C\Cn2cnc3c(Cl)nc(Cl)nc32)n1`, the GI50 is 3.8 µM and the TGI stood at 13.6 µM.
In turn, `C=CC[C@H](C)CCC(=O)N1[C@H]2CC3CC[C@@]2(CS1(=O)=O)C3(C)C` had a TGI of over 100 µM.
Still for that read-out and setting: with `COc1cc[n+](C)cc1` the figure was over 100 µM.
On to `CC(=O)OCC1=C(C)C(OC(=O)C(OC(C)=O)[C@@H](NC(=O)c2ccccc2)c2ccccc2)CCC1(C)C` (some centres undefined), for which the TGI was over 100 µM.
Same read-out and setting: in the case of `COC(=O)/C=c1/c2ccccc2n2nc3ccccc3c12` it was over 100 µM.
On to `O=C1C(Cl)=C(Nc2cccc(O)c2)C(=O)N1c1cc(Cl)c(Cl)cc1Cl`, for which the GI50 was 17.1 µM and the TGI turned out to be 38.8 µM.
As to `NCc1ccccc1C1CSCSC1`, the TGI is over 100 µM.
On the same count and under the same terms, with `S=C1N=C(Cl)C2(NN1)c1ccccc1-c1ccccc12` the figure was over 10 µM; with `COc1ccc(CC2NC(=O)/C=C/CC(C(C)C3OC3c3ccccc3)OC(=O)C(CC(C)C)OC(=O)C(C)CNC2=O)cc1Cl` (centres undefined), over 0.1 µM.
